According to PubChem BioAssay AID1468 (National Center for Advancing Translational Sciences (NCATS), 2008):
In all, about 280,000 compounds went through this assay and about 1,100 (0.39%) were called active. Inconclusive means that the source gave no clear call. Such entries were picked first, then a sample of the others. Calls come from the whole dose curve; as a rule, active = well fitted inhibition curve with a large enough effect; inconclusive = small, poorly fitted or top-dose-only effect, or effect the other way; inactive = flat fitted curve, though single readings scatter. Potencies of inconclusive entries are left out as doubtful fits.

The compounds below were run against Microtubule-associated protein tau (Homo sapiens) (UniProt P10636) (assay: qHTS for Inhibitors of Tau Fibril Formation, Fluorescence Polarization). Conditions: K18 P301L tau heparin fibrillization, Alexa594 FP, 6 h; series mostly up to 57.7 µM.
UniProt P10636, sequence (P10636 whole entry, looked up): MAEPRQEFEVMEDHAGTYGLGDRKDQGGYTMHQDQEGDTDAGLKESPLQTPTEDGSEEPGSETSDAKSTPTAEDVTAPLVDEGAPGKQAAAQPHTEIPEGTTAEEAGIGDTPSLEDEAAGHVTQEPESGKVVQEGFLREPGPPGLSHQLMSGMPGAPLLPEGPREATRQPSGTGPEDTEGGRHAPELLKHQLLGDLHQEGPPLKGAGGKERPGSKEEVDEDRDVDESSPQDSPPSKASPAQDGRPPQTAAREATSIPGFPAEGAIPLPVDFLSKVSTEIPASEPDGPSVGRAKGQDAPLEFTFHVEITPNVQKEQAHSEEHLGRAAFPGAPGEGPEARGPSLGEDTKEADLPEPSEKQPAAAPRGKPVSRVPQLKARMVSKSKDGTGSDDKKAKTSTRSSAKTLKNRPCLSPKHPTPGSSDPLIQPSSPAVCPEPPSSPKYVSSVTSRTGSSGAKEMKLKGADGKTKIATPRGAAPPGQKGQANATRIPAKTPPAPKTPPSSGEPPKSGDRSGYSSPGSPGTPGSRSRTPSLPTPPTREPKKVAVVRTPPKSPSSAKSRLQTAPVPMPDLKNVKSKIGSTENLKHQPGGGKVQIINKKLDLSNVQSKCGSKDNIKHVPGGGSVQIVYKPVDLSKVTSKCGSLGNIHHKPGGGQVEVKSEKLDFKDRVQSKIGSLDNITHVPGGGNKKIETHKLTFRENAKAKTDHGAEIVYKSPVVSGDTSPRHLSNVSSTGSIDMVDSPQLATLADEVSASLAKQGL
Procedure, shortened: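 FP of Alexa 594-tau after heparin (20 uM) induction. Substrate: human K18 P301L, 15 uM unlabeled, 0.24 uM labeled. Buffer 100 mM sodium acetate pH 7. 6 hr, 37 C.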
Note: nearly all actives have a fitted effect of over 55% in size.
Potency is the fitted concentration of half-maximal effect; tags give direction and shape of the fitted curve.

SMILES	Potency
Cc1nn(-c2ccccc2)c2[nH]c(=O)c(CNc3ccc4c(c3)OCCO4)cc12	inactive
Clc1ccc(/C=N/c2c(-c3ccc(Cl)cc3)nc3n2CCS3)cc1	inactive
CCOc1ccccc1NC(=O)Cn1c(=O)oc2cc(S(=O)(=O)NCc3ccccc3)ccc21	inactive
CCOC(=O)C1=C(N)c2ccccc2CC1C1CCCC1 (stereo unspecified)	inconclusive [activator, partial curve]
CCOC(=O)c1cccc(NC(=O)c2cc3cc4cc(OC)ccc4nc3s2)c1	inconclusive [inhibitor, partial curve]
CCCCn1c(NC(=O)c2ccccc2Cl)c(C#N)c2nc3ccccc3nc21	inactive
CCOc1c(Br)cc(CNc2ccc(N3CCN(C(C)=O)CC3)cc2)cc1OC	inconclusive [activator, partial curve, poor fit]
CNc1cc(-n2nc(C)cc2-c2ccccc2)ncn1	inconclusive [inhibitor, single point]
O=C(CSc1cccc(C(F)(F)F)c1)Nc1ccc(Cl)cc1Cl	inconclusive [inhibitor, single point]
CS(=O)(=O)N1CCc2cc(C(=O)Nc3ccc(Cl)c(C(F)(F)F)c3)ccc21	active: 20 µM
CC(=O)c1sc(NC(=O)C(C)(C)C)nc1C	inactive
COc1ccccc1NC(=O)Cn1nnc(-c2ccccc2NC(=O)c2cccs2)n1	inconclusive [inhibitor, partial curve, poor fit]
CC(=O)c1cccc(NC(=O)[C@H](Cc2ccccc2)N2Cc3ccccc3C2=O)c1	inactive
COCC(=O)N/N=C/c1ccc(Sc2nc3ccccc3s2)o1	inactive
O=C(Nc1ccc(Cl)cc1)Nc1nnc(CSCc2ccccc2Cl)s1	inconclusive [inhibitor, partial curve]
CCN1CCN(C(=S)c2ccc(SC)cc2)CC1	inactive
Oc1c(Br)cc(Br)cc1C=Nc1ccc2c(c1)OCCO2	inconclusive [inhibitor, partial curve]
COc1cc(NC(=O)c2cnc(N)o2)cc(C(=O)Nc2cccc(C(F)(F)F)c2)c1	inconclusive [inhibitor, partial curve]
COc1ccc2c(c1)c1c(c(=O)n(-c3cccc(Cl)c3)c(=O)n1CC(=O)NCC1CCCO1)n2C (stereo unspecified)	inactive
C=CCNc1nc(NCc2ccccc2)c(C#N)c2c1CN(C)CC2	inconclusive [inhibitor, full curve]
CCCN(CCC)C(=O)C1CCN(c2cc(C)nc3c(-c4ccc(OC)c(OC)c4)c(C)nn23)CC1	inconclusive [activator, full curve, poor fit]
O=C(c1ccc(S(=O)(=O)N2CCCCC2)cc1)N1CCN(c2ccccc2F)CC1	inconclusive [activator, single point]
COc1ccc(NC(=S)NCCN2CCOCC2)cc1	inactive

SMILES	Potency
Nc1nc(Nc2ccccc2F)nc(NCCO)c1[N+](=O)[O-]	inactive
CC(CNC(=O)c1nnc(Cc2cccc(F)c2)o1)c1ccccc1 (stereo unspecified)	inconclusive [inhibitor, single point]
O=C(Nc1ccccc1C(F)(F)F)c1cc(-c2ccc(O)cc2)on1	inconclusive [inhibitor, single point]
Cc1ccccc1SCC(=O)N1CCN(c2ccc(C(F)(F)F)cn2)CC1	inactive
O=C(COC(=O)c1ccc2[nH]c3c(c2c1)CCCC3)Nc1ccccc1Cl	inconclusive [inhibitor, single point]
CC1=CC2=NC(=O)/C(=C\c3cccn3CCOc3cccc(C)c3)C(=N)N2O1	inconclusive [inhibitor, partial curve]
Cc1cccc(C)c1Nc1ncnc(N)c1[N+](=O)[O-]	inconclusive [inhibitor, single point]
CCOC(=O)c1c(CSc2ccccc2)oc2ccc(O)cc12	inconclusive [inhibitor, partial curve]
Cc1ccc(CNC(=O)c2cn(C3CCCC3)c(=O)c3c2c2ccccc2n3C)o1	inconclusive [inhibitor, single point]
COc1ccc(N2C(=O)/C(=C\c3ccco3)N=C2SCC(=O)NC(C)C)cc1Cl	inconclusive [inhibitor, single point]
O=C(COC(=O)CNC(=O)C1CCCCC1)Nc1ccc2ccccc2c1	inconclusive [inhibitor, full curve]
COc1ccc(OC)c(NC(=O)COCc2cc(-c3ccco3)on2)c1	inactive
Oc1c(Cl)cc(Cl)cc1C=Nc1cc(C(F)(F)F)ccc1N1CCc2ccccc2C1	inconclusive [inhibitor, single point]
Cc1cc(C)c(Cn2c(=O)n(Cc3ccccc3)c(=O)c3c(C)c(C)sc32)c(C)c1	inactive
C#CCNC(=O)C1CCN(c2cc(C)nc(-c3ccccc3)n2)CC1	inconclusive [inhibitor, partial curve]
COc1ccc(OCCC(=O)NC2CCCCC2)cc1	inconclusive [inhibitor, single point]
Cc1[nH]c(=S)sc1Cc1ccc(F)cc1	inconclusive [inhibitor, single point]
S=C(NC1CCCC1)N1CCN(c2cccc(Cl)c2)CC1	inactive
COC(=O)c1sccc1NC(=O)COc1ccc(Cl)cc1Cl	inconclusive [inhibitor, single point]
Cc1ccc2c(c1)c(=O)c1ccccc1n2CCCC(=O)Nc1ccc(Cl)c(Cl)c1	inconclusive [inhibitor, partial curve]
Cc1ccc(OCCSCc2nnc(NC(=O)Nc3cccc(Cl)c3)s2)cc1	active: 15.8 µM
COc1ccc(-c2n(CC(=O)OC3CC(C)CCC3C(C)C)c3ccccc3[n+]2C)cc1 (stereo unspecified)	inactive
CCOc1ccc(NC(=O)CN2C(=O)c3ccccc3Sc3ccc(C(=O)OC)cc32)cc1	inconclusive [inhibitor, single point]
